The campaign covered roughly 1,000 compounds. About 360 (36%) were called active.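 How the source made its calls: active means Fitted curve of melting temperature shift crosses the 1.0 threshold at or below the sample's highest valid tested concentration; inconclusive means Flat fit with activity 30 to 70, or invalid fit; inactive means Opposite direction, flat within 30, or no crossing.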 Most of the strongest results are missing from this list.
target: Fibroblast growth factor 22 (Homo sapiens) (UniProt Q9HCT0); test: FGF22 ligand-induced thermal stabilization – biophysical, thermal shift, cherry-pick, FGF22 synaptogenesis inhibitor project, dose response (AID 687022); details: recombinant FGF22 thermal shift, SYPRO orange melting; at 38 µM (top of the series) unless noted; further: reference of the scale not given here
UniProt Q9HCT0, sequence (Q9HCT0 whole entry, looked up): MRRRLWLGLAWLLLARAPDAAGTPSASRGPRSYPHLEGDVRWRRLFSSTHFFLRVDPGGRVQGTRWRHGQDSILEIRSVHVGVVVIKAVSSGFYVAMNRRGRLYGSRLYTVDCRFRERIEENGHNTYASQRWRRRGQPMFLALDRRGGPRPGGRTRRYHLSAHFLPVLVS

Q: With CCc1ccc2nc(N)sc2c1 as the compound, how does the Tm shift activity read?
A: inactive: 0.106%

Q: COCCNC(=O)c1cccc2c(-c3cnn(C)c3)coc12 was tested. Which Tm shift activity did it give?
A: inactive: -0.313%

Q: How did the Tm shift activity turn out when CC(C)NC(=O)N(C)C[C@@H]1Oc2c(NC(=O)c3nc4ccccc4s3)cccc2C(=O)N([C@H](C)CO)C[C@H]1C was run?
A: inactive: 0.053% [at 42 µM]

Q: COc1cc(NC(=O)c2ccc3c(c2)OCO3)ccc1NC(=O)c1cccs1 was tested. Which Tm shift activity did it give?
A: inactive: 0.52%

Q: For Cc1ccc(S(=O)(=O)Nc2ccc3c(c2)CC(=O)N([C@@H](C)CO)C[C@H](C)[C@@H](CN(C)S(C)(=O)=O)O3)cc1, which Tm shift activity is on record?
A: inactive: -0.143%

Q: For Cc1cc(C(=O)Nc2cccc3c2O[C@@H](CN(C)C(=O)NC2CCCCC2)[C@@H](C)CN([C@H](C)CO)C3=O)n(C)n1, which Tm shift activity is on record?
A: inactive: -0.109%

Q: C[C@H]1CN([C@@H](C)CO)C(=O)c2cc(NC(=O)Cc3ccccc3)ccc2O[C@H]1CN(C)Cc1ccc2c(c1)OCO2 was tested. Which Tm shift activity did it give?
A: inactive: -0.068%

Q: CCC(=O)N1[C@@H](CO)[C@@H]2c3ccccc3N(S(=O)(=O)c3ccc(F)cc3)C[C@@H]21 was tested. Which Tm shift activity did it give?
A: inactive: -0.157%

Q: How did the Tm shift activity turn out when O=C(NCC[C@@H]1CC[C@@H](NC(=O)C2CCOCC2)[C@H](CO)O1)Nc1ccc(Cl)cc1 was run?
A: inactive: 0.778% [at 42 µM]

Q: How did the Tm shift activity turn out when CSc1ccc(C(=O)NCC2CCN(C(=O)C(=O)c3cc4ccccc4o3)CC2)cc1 was run?
A: inactive: -1.12%

Q: Which Tm shift activity does the source give for COCC#Cc1cnc2c(c1)C(=O)N([C@H](C)CO)C[C@H](C)[C@H](CN(C)C(=O)c1cnccn1)O2 here?
A: inactive: -0.135%

Q: With C[C@H](CO)N1C[C@H](C)[C@@H](CN(C)C)Oc2ncc(-c3cccnc3)cc2C1=O as the compound, how does the Tm shift activity read?
A: inactive: 0.133% [at 42 µM]

Q: For COc1cccc(NC(=O)N[C@H]2C=C[C@@H](CC(=O)N3CCN(C)CC3)O[C@H]2CO)c1, which Tm shift activity is on record?
A: inactive: 0.241% [at 42 µM]

Q: For COCC(=O)N1CC2(C1)[C@@H](c1ccccc1)[C@@H](CO)N2C(=O)NC1CCCC1, which Tm shift activity is on record?
A: inactive: -0.066%

Q: With Cc1noc(C)c1NC(=O)Nc1ccc2c(c1)C(=O)N(C)[C@H]1CC[C@H](CC(=O)N[C@@H]3CCN(Cc4ccccc4)C3)O[C@@H]1CO2 as the compound, how does the Tm shift activity read?
A: inactive: -0.093%

Q: C[C@H]1CN([C@@H](C)CO)C(=O)c2cc(C#Cc3ccccc3F)cnc2O[C@H]1CN(C)S(=O)(=O)c1ccccc1 was tested. Which Tm shift activity did it give?
A: inactive: -0.393% [at 42 µM]

Q: With CN(C(=O)CCc1nnc(CCCCc2ccccc2)o1)C1CCOCC1 as the compound, how does the Tm shift activity read?
A: inactive: 0.106%

Q: Which Tm shift activity does the source give for CCCNC(=O)N1C[C@@H]2[C@H](c3ccccc31)[C@H](CO)N2Cc1ccc(F)cc1 here?
A: inactive: 0.09%

Q: With C/C=C/c1ccc([C@H]2[C@@H](CO)N(C(C)=O)C23CN(C(=O)c2ccc(F)cc2)C3)cc1 as the compound, how does the Tm shift activity read?
A: inactive: -0.84%

From PubChem BioAssay AID687022 (Broad Institute, 2013)
